According to PMC4336329 (PLoS ONE, 2015):
Among all 310,000 compounds or so, about 2,200 (0.71%) showed an effect of 50% or more. The effect is printed as a negative number. This is one part of the list.

biological target: human ether-à-go-go-related gene (hERG) potassium channel (human, UniProt Q12809); experiment: primary screen, population patch clamp on CHO cells stably expressing hERG
Sequence (Q12809 whole entry, looked up): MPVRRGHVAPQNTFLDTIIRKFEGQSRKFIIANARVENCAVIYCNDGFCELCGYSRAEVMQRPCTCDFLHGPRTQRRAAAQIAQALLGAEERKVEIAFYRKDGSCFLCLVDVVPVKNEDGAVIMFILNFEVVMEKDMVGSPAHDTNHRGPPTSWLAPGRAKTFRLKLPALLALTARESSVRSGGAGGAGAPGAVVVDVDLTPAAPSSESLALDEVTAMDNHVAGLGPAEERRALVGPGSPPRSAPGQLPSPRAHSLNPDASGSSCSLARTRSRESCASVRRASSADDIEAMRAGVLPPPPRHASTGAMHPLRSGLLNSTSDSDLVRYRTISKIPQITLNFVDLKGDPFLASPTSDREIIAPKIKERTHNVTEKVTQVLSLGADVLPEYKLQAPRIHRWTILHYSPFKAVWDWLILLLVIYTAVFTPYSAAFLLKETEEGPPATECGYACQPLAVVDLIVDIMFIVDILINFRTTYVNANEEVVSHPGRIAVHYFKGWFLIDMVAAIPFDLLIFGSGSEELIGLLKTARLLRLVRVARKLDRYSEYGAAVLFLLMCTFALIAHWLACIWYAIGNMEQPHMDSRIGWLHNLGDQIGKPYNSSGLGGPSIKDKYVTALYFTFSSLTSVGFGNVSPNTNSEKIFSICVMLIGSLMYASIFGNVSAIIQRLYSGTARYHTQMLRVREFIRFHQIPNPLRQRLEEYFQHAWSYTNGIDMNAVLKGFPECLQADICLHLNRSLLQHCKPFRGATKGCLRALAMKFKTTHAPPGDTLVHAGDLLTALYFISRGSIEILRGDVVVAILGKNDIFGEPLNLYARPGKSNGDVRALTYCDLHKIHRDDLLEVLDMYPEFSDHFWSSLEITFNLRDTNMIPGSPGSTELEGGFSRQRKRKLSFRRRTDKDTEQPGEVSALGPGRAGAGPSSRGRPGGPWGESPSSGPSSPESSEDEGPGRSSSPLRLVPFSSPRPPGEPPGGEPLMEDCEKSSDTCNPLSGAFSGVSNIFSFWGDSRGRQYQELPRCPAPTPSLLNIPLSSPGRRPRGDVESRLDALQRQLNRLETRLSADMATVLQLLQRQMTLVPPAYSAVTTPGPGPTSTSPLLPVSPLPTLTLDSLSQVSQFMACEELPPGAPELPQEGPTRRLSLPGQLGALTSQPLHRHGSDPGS

SMILES | hERG current change (%, negative = inhibition) at 1uM [%]
CC(Oc1ccccc1)C(=O)Nc1ccc(S(=O)(=O)NCC2CCCO2)cc1 (stereo not shown) | 0.893
CN(C)C(=O)c1ccc(NC(=O)c2cc(-n3cnnc3)ccc2Cl)cc1 | 4.04
CC1CCCN(S(=O)(=O)c2ccc(NC(=O)Cn3nnc(-c4ccccc4F)n3)cc2)C1 (stereo not shown) | 7.34
Clc1ccccc1Sc1ccc(-c2ccccn2)s1 | 9.33
CCC(C)NC(=O)CCC(=O)OC1O[C@H]2OC3(C)CC[C@H]4[C@H](C)CCC(C1C)C24OO3 (stereo partly shown) | 5.59
Cc1ccc(C(=O)N(CC(=O)NC2CCCC2)c2ccc(F)cc2)s1 | -0.522
O=C(CCS(=O)(=O)c1ccccc1)Nc1nc(-c2ccccn2)cs1 | 7.75
CCSc1nnc2c3cc(CC)ccc3n(C)c2n1 | 13.9
COc1ccc2cnn(-c3ccc(OC(F)(F)F)cc3)c(=O)c2c1OC | 14.8
COc1cc(C(=O)N/N=C/c2cn(Cc3cccc(F)c3)c3ccccc23)ccc1O | 14.5
CCOCCCN1CC(=O)N2[C@@H](Cc3c([nH]c4ccccc34)C2(C)C)C1=O | 8.37
CCN(Cc1ccccc1)C(=O)c1ccc(N(C)S(=O)(=O)c2ccc(C)cc2)cc1 | -10.2
O=C(N/N=C\c1ccc(-c2cccc(Cl)c2)o1)C(=O)NC1CCCC1 | 9.25
O=C(Nc1ccc(Cl)cn1)Nc1ccc(Cl)cn1 | 1.64
CC(C)[C@H](NC(=O)OCc1ccccc1)C(=O)OCC(=O)N1CCN(c2ccccc2)CC1 | -16.8
Cc1ccc(/C=C/C(=O)OCC(=O)NCCN2C(=O)CSC2=O)cc1 | -1.1
Cc1ccccc1-c1noc(N)c1C#N | -1.11
CCN(CCNc1ccc([N+](=O)[O-])c2cccnc12)S(=O)(=O)c1ccccc1 | 9.2
COc1ccc(F)cc1C(=O)C1CCCN(C(=O)Cc2c(C)noc2C)C1 (stereo not shown) | 1.73
O=C(O)COc1ccccc1/C=N/NC(=O)c1cc(-c2ccc(F)cc2)nc2ccccc12 | 7.14
CC(C)[C@H](NC(=O)OCc1ccccc1)C(=O)OCC(=O)Nc1ccc(N2CCOCC2)cc1 | 3.53
Cc1ccc(-n2[nH]c(C)c(C=Nc3ccc4[nH]c(=O)[nH]c4c3)c2=O)cc1 | 12.2

SMILES | hERG current change (%, negative = inhibition) at 1uM [%]
CCCCn1c(N)c(N(CC(C)C)C(=O)C2=NN(c3cc(C)ccc3C)C(=O)CC2)c(=O)[nH]c1=O | 9.18
CCCCn1c(N)c(N(CC(C)C)C(=O)c2ccc(S(=O)(=O)N(CC)c3ccccc3)cc2)c(=O)[nH]c1=O | 5.65
Cc1cc(OCC(=O)Nc2cccnc2)c2c(C)c(C)c(=O)oc2c1 | 13.2
COc1ccccc1N(CC(=O)NCCSCc1ccccc1)S(=O)(=O)c1ccc(C)cc1 | -4.32
O=C(Cc1cccc2ccccc12)Nc1cc(C(=O)O)cc(C(=O)O)c1 | 17.4
CN1C(=O)CS/C1=N\NC(=O)COc1cccc2cccnc12 | 10.9
COc1ccc(OC)c(CCNC(=O)c2ccc(NC3=NC4CS(=O)(=O)CC4S3)cc2)c1 (stereo not shown) | 10.4
COC(=O)c1c(NC(=O)Cc2cccs2)sc(C(=O)N2CCCCC2)c1C | 15.9
CC(C)CNC(=O)c1cnn2c(C(F)(F)F)cc(C(F)(F)F)nc12 | 6.51
O=C(CCCNS(=O)(=O)c1cccs1)N1CCN(c2cccc(Cl)c2)CC1 | 5.43
N#Cc1c(NC(=O)c2ccc(Cn3cc(Br)cn3)o2)sc2c1CCCCC2 | 3.21
Cc1cc2ccccc2n2c(SCC(=O)N3CCOCC3)nnc12 | 11.2
CCc1cc[n+](-c2nc([O-])sc2C=O)cc1 | -2.68
Cc1ccc(-n2nc(-c3ccc(N)cc3)cc2N)cc1 | 12.7
COc1ccc2c(CC(=O)O)cc(=O)oc2c1 | 8.88
Cc1noc(/C=C/N(C)C)c1S(=O)(=O)N1CCCC(C(=O)Nc2ccc(F)cc2F)C1 (stereo not shown) | 7.51
COc1cccc(-c2nnc(NC(=O)CCS(=O)(=O)c3ccc(C)cc3)o2)c1 | 17
CC(=O)Cc1nsc(NC(=O)c2ccc(-c3cccc(C(F)(F)F)c3)o2)n1 | -10.9
S=C(NCc1ccccc1)N/N=C/c1cccs1 | 19.5
COc1ccc(CNC(=O)c2ccccc2[N+](=O)[O-])cc1 | 6.62
COc1ccc(OC)c(S(=O)(=O)N2CCc3ccccc3C2)c1 | 7.52
